In publication PMC4336329 (PLoS ONE, 2015):
In all, about 310,000 compounds went through this assay and about 14,000 (4.5%) showed an effect of 50% or more. Effects have a minus sign here. Some of the results follow.

These compounds were tested against human ether-à-go-go-related gene (hERG) potassium channel (human, UniProt Q12809) (assay: primary screen, population patch clamp on CHO cells stably expressing hERG).
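Note: peak tail current of the secondary pulse compared with the same well before compound.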

Chain of human ether-à-go-go-related gene (hERG) potassium channel (Q12809 whole entry, looked up): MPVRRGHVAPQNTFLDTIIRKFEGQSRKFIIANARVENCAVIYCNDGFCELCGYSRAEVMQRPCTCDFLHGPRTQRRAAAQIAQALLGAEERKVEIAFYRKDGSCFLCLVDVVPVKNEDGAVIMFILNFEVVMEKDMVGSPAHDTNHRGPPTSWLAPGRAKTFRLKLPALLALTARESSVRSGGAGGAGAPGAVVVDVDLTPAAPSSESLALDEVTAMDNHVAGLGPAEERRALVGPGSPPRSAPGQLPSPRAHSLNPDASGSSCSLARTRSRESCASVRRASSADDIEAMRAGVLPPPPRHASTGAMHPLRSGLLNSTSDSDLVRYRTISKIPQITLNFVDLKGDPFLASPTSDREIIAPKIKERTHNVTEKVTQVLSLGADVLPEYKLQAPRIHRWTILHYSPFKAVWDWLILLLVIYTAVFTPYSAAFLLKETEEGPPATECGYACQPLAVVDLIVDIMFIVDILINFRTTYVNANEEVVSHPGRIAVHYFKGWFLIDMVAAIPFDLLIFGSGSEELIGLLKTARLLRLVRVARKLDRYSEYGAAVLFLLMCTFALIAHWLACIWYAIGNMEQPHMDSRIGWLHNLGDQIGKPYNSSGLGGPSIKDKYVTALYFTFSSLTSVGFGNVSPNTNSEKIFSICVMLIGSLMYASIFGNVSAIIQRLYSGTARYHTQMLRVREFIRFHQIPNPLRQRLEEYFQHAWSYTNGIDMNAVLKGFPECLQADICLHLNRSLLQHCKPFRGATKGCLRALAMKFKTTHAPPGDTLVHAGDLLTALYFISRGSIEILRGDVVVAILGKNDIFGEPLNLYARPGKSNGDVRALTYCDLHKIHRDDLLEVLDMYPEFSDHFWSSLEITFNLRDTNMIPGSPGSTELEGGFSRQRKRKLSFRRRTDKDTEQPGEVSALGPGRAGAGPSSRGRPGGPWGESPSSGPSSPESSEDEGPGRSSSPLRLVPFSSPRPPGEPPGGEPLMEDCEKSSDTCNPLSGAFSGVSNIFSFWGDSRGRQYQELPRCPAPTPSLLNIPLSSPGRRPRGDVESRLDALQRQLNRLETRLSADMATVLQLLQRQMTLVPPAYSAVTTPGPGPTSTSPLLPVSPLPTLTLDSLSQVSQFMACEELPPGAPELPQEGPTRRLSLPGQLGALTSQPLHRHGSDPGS

Row | Compound | hERG current change (%, negative = inhibition) at 10uM [%]
1 | COC(=O)C1=C(N)OC(C)=C(C(C)=O)C12C(=O)N(C)c1ccccc12 (stereo not drawn) | -3.07
2 | COC(=O)c1nc(NC(C)=O)n[nH]1 | 14
3 | COc1ccc(CCNS(=O)(=O)c2ccc(F)cc2)cc1OC | -5.18
4 | COc1ccccc1NC(=O)COC(=O)[C@@H]1CCCN1C(=O)c1cccs1 | -40.6
5 | COc1ccc(N(C)C(=O)Nc2ccc3c(c2)nnn3C)cc1 | 4.71
6 | COc1cccc(/C=N/NC(=O)c2cc3c(OC)cccc3[nH]2)c1O | 28.3
7 | COc1ccc(S(=O)(=O)Cc2ccc(C(=O)NCc3ccccn3)o2)cc1 | -1.65
8 | Cc1cccc(CSc2ccc3nnc(-c4cccnc4)n3n2)c1 | -66.5
9 | Cc1nc(SCC(=O)N(C)C2CCCCC2)[nH]c(=O)c1Cc1ccccc1 | -38.3
10 | O=C1/C(=C/c2ccncc2)SC(=S)N1Nc1ccccc1 | 14.3
11 | C=CCN1C(=O)/C(=C\c2ccc(Cl)cc2)N=C1SCC(=O)NC1CCCCC1 | 9.07
12 | CCN1CCN(C(=S)Nc2sc(C)c(-c3ccccc3)c2C(=O)OC)CC1 | 15.3
13 | CCn1c(CNC(=O)c2ccccc2)nnc1SCC(=O)N1CCN(c2ccccc2)CC1 | -11.6
14 | O=C(Nc1ccc(C(=O)N2CCOCC2)cc1)c1cccc([N+](=O)[O-])c1 | 18.2
15 | COc1ccccc1C(=O)Oc1ccc2c(c1)O/C(=C\c1ccncc1)C2=O | 16.4
16 | O=C(NC(=S)Nc1ccccc1N1CCCCC1)c1ccc(-c2cccc([N+](=O)[O-])c2)o1 | 4.88
17 | CN(C)CCCN(Cc1ccccc1)C(=S)Nc1ccc(F)c(Cl)c1 | -24.3
18 | CSc1nc(C)c(C(=O)C[n+]2ccccc2)cc1C#N.[Br-] | -22.6
19 | Cc1ccccc1Oc1ccc(-c2nc(N)nc(N)n2)cc1 | 3.44
20 | COc1ccc(CN2C(=S)NC(C)(C)CC2(C)O)cc1 (stereo not drawn) | 5.27
21 | O=C(CS(=O)(=O)c1cccc(C(F)(F)F)c1)Nc1ccccc1Cl | 8.59
22 | CCN1CCN(C(=O)/C=C/c2ccc(F)cc2)CC1 | -43.2

Row | Compound | hERG current change (%, negative = inhibition) at 10uM [%]
23 | O=C(COC(=O)c1ccc(Cl)cc1O)NCCN1C(=O)CSC1=O | -0.903
24 | O=C(CCCn1c(=O)[nH]c2cc(Cl)ccc2c1=O)NCCCN1CCCC1 | 14.6
25 | CN(CC(=O)Nc1ccc(Cl)c(C(F)(F)F)c1)C(=O)c1ccc2c(c1)OCCO2 | -8.55
26 | Cc1cc(=O)n2nc(N3CCCC(C(=O)NCCCN4CC(C)CC(C)C4)C3)sc2n1 (stereo not drawn) | 16.3
27 | COCCn1c(N2CCCC2)nc2c1c(=O)[nH]c(=O)n2C | 15.7
28 | Cc1ccc(N(CC2CO2)S(=O)(=O)c2ccc(C)cc2)cc1 (stereo not drawn) | -5.18
29 | Cc1cc([N+](=O)[O-])nn1CC(=O)Nc1nccs1 | -4.57
30 | CN(C)c1nc(-c2cn(CCC#N)c3ccccc23)cs1 | 25.6
31 | CCC(C)(C)c1nnc(NC(=O)c2ccc([N+](=O)[O-])cc2)s1 | 7.45
32 | Cc1nn(-c2ccccc2)c(-c2ccccc2[N+](=O)[O-])c1C(=O)O | 15.1
33 | O=C(Nc1ccnn1C1CCN(Cc2ccccc2OCCO)CC1)c1cccc(F)c1 | -34.8
34 | CCNC(=O)N1CCN(S(=O)(=O)c2ccc3c(c2)OCCCO3)CC1 | 10.6
35 | Cc1cc(C)c2nc(Cl)c(Cl)nc2c1 | 12.5
36 | O=C(NC(=S)Nc1ccc(CN2CCOCC2)cc1)c1ccc(-c2ccc(Cl)cc2)o1 | 1.86
37 | CN(CCc1ccccn1)C(=O)CCC1CCCN(C(=O)c2n[nH]c3c2CCCC3)C1 (stereo not drawn) | 22.9
38 | COc1ccccc1C(=O)NCCC(=O)N(C)CC(=O)Nc1ccccc1Br | -13
39 | O=C(Nc1ccc(S(=O)(=O)Nc2ccccc2)cc1)C1COc2ccccc2O1 (stereo not drawn) | -4.98
40 | COc1ccccc1N(CC(=O)NC(C)(C)C)S(=O)(=O)c1cccs1 | -19.3
41 | O=C1c2cccnc2C(Nc2ccc(F)c(Cl)c2)N1Cc1cccs1 (stereo not drawn) | 7.7
42 | O=C(CCC(=O)c1cccs1)NC1CCCCCC1 | -4.2
43 | CC(NC(=O)c1ccc(S(=O)(=O)Nc2ccccc2)cc1)c1ccc(S(N)(=O)=O)cc1 (stereo not drawn) | 1.11
44 | COC(=O)C1=C(c2cc3ccccc3o2)C[C@@H]2CC[C@H]1N2C(=O)N1CCCCC1 | -21.4

Row | Compound | hERG current change (%, negative = inhibition) at 10uM [%]
45 | Cc1ccc(OCc2nnc(SCC(=O)Nc3cc(C)on3)n2C)cc1 | 20.7
46 | CCOc1ccc2oc(C(=O)OCC(=O)NC3CCCC3)c(C)c2c1 | 11.1
47 | O=S(=O)(c1cccc(-c2nnco2)c1)N1CCOCC1 | 8.96
48 | CCO[C@H]1OC(C(=O)O)=C[C@@H](c2ccccc2)[C@@H]1CCCO | -4.36
49 | CCOc1ccc(CCNC(=O)CSc2ncn[nH]2)cc1OCC | -8.55
50 | CCC(C)NS(=O)(=O)c1ccc(NC(=O)c2ccc([N+](=O)[O-])cc2Cl)cc1 (stereo not drawn) | -88.7
51 | CC(C)C(C)(C#N)NC(=O)CSc1nc(C2CCCCC2)n(-c2ccccc2)n1 (stereo not drawn) | -17.8
52 | COCCN(C(=O)Cc1coc2cc(C)c(C)cc12)c1c(N)n(Cc2ccccc2)c(=O)[nH]c1=O | -2.52
53 | O=S(=O)([O-])CCC[N+]1(CC#Cc2ccccc2)CCCCC1 | 33.8
54 | CCCc1nnc(NC(=O)c2ccc(S(=O)(=O)N(C)c3ccccc3OC)cc2)s1 | 4.41
55 | N/C(=N\N=C\c1ccnc2ccccc12)SC1CC(=O)N(c2ccc(Br)cc2)C1=O (stereo not drawn) | 0.637
56 | COc1ccc(-c2nnc(SCC(=O)NCc3cccs3)n2C)cc1 | -1.49
57 | c1ccc(-c2nnc(-c3ccncc3)nc2-c2ccccc2)cc1 | -24.5
58 | CNS(=O)(=O)c1ccc(C)c(S(=O)(=O)NC)c1 | 18.9
59 | CC1CC(=O)N(c2ccc(NCCc3ccc(O)cc3)c([N+](=O)[O-])c2)C1=O (stereo not drawn) | -3.21
60 | Cc1cc(=O)oc2c(C)c(OCC(=O)N3CCN(Cc4ccccc4)CC3)ccc12 | -44
61 | COc1ccc(NC(=O)Cn2nnc(C(=O)NCc3cccc(OC)c3)c2N)cc1 | 10.6
62 | COC(=O)c1cccc(NC(=O)c2cc3sccc3n2C)c1 | -5.25
63 | COc1ccc(-c2csc(NC(=O)c3ccccc3NS(=O)(=O)c3ccc(F)c(F)c3)n2)cc1 | 19.3
64 | COc1ccc(C)cc1NC(=O)CSc1nnc2ccc(-c3cccnc3)nn12 | -35.1
65 | CCc1nc(C)ccc1OC(=O)C12CC3CC(CC(C3)C1)C2.Cl | -4.09
66 | O=C(COC(=O)c1ncc(Cl)c(Cl)c1Cl)Nc1ccccc1OC(F)F | 6.21

Row | Compound | hERG current change (%, negative = inhibition) at 10uM [%]
67 | COc1ccc(/C=C/C(=O)OCC(=O)NC(=O)NC(C)(C)C)cc1 | 11.9
68 | Cc1ccc(-c2ccc(=O)n(CCC(=O)NCCN3CCCCC3C)n2)cc1 (stereo not drawn) | -58.7
69 | COc1ccc(-c2nc(S(=O)(=O)c3ccccc3)c(N3CCOCC3)o2)cc1 | 24
70 | O=C(c1ccc(OC2CCN(Cc3cccc(F)c3)CC2)cc1)N1CCCCC1 | -23.4
71 | Cc1ccc(/C(N)=N/OC(=O)c2cccc(Cn3cc(C(F)(F)F)ccc3=O)c2)cc1 | -7.03
72 | CCOC(=O)CNC(=O)/C(=C\c1ccc(F)cc1)NC(=O)c1ccccc1 | -26.4
73 | COc1ccc(C)cc1S(=O)(=O)N(CC(=O)O)c1ccc(F)cc1 | 6.59
74 | N#Cc1ccc(COC(=O)c2cnc3ccccc3n2)cc1 | -8.51
75 | CC(CCC(=O)O)C1CC[C@H]2C3CCC4CC(=O)CCC4(C)[C@H]3CC(=O)C12C (stereo partly drawn) | -8.19
76 | CC(=O)C[C@H](O)CC(=O)[C@@H]1OC(=O)CCCCCCc2ccccc21 | 0.558
77 | O=C(c1ccc(Br)cc1)N(Cc1ccco1)C1CCS(=O)(=O)C1 (stereo not drawn) | -10.3
78 | CCCCN(CC)Cc1ccc(CNC(=S)Nc2c(C)cc(C)cc2C)o1 | -54.8
79 | Cc1ccc(C)c(SCC(=O)OCC(=O)N2CC(C)OC(C)C2)c1 (stereo not drawn) | -2.98
80 | O=C(CN1CCN(C(=O)c2c(F)cccc2F)CC1)Nc1ccccc1F | -11.3
81 | O=C(Nc1ccc2c(c1)OCCO2)c1cnccn1 | 10.7
82 | COc1ccccc1NS(=O)(=O)c1cccc(C(=O)NCC(C)(C)N2CCOCC2)c1 | -4.29
83 | O=C(CSc1nncs1)NCCNC(=O)CSc1nncs1 | 23.1
84 | COc1cccc(N2CCN(c3nc(C)cc(=O)[nH]3)CC2)c1 | 13.2
85 | CC(C)C1COC(c2cccc3ccccc23)=N1 (stereo not drawn) | 4.64
86 | CCOC(=O)c1c(NC(=O)C2C3C=CC(C3)C2C(=O)O)sc2c1CCC(C)C2 (stereo not drawn) | -6.93
87 | Cc1cccc(NC(=O)c2ccc3nsnc3c2)c1C | 37
